Like-named read-outs stand apart in the source and are kept apart here.
Experiments:
[1] = tested on: HIV-1 double reporter virus (OGH) in THP1 cells; format: cell-based; details: THP1, LEDGIN added during virus production
[2] = tested on: HIV-1 double reporter virus (OGH) in SupT1 cells; format: cell-based; details: SupT1, LEDGIN added during virus production
[3] = tested on: HIV OGH double reporter virus in SupT1 cells; format: cell-based, HIV-1

`CCCC(C(=O)O)c1c(C)nc2ccc(Cl)cc2c1-c1ccccc1` (stereo not shown) [CX014442, 2-(6-chloro-2-methyl-4-phenylquinolin-3-yl)pentanoic acid] was tested, and the “fraction of quiescent cells (% eGFP−, mKO2+ cells)/(% mKO2+ cells)*100” value [1] was “increased proportionally with the concentration”, the “fraction of quiescent cells (% eGFP−, mKO2+ cells)/(% mKO2+ cells)*100” value [2] was “increased proportionally with the concentration” and the “fraction of latently infected cells (% eGFP−, mKO2+ cells)/(% mKO2+ cells)*100” value ([3]; SupT1, LEDGIN addition, trend) was “increase”. The “fraction of latently infected cells (% eGFP−, mKO2+ cells)/(% mKO2+ cells)*100” value ([3]; SupT1, concentration of 25 μM) was 100%.

— patent US12465604B2 (priority 2015, dated 2025)
